# Test results reported in PubChem BioAssay AID1030 (National Center for Advancing Translational Sciences (NCATS), 2008).
# About 16,000 (7.3%) of roughly 220,000 compounds were called active. The shares of active, inactive and inconclusive entries below differ from those in the screen. The call rests on the fitted dose curve; in most records, active means well fitted inhibition curve with a large enough effect (not every such curve was filed as active); inconclusive means small, poorly fitted or top-dose-only effect, or another doubt; inactive means no such curve, though single readings can be large or run the other way. Potencies of inconclusive entries are left out as doubtful fits.
# Molecular target: Aldehyde dehydrogenase 1A1 (Homo sapiens) (UniProt P00352)
# Sequence of UniProt P00352 (P00352 whole entry, looked up): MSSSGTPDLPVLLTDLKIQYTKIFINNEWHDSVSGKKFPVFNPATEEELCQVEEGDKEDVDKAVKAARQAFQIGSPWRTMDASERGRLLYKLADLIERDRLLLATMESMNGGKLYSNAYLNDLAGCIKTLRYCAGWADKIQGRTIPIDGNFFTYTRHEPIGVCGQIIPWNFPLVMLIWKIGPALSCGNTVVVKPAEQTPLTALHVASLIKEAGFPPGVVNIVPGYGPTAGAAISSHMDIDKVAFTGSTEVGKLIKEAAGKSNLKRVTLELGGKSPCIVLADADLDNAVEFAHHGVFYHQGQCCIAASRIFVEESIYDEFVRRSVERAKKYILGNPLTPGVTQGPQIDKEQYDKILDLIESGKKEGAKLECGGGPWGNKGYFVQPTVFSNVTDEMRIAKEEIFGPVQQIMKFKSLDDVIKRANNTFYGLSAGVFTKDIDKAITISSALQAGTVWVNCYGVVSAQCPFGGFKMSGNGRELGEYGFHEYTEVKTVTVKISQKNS
# Experiment: qHTS Assay for Inhibitors of Aldehyde Dehydrogenase 1 (ALDH1A1);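 on activity, negative = inhibition: plate controls were no enzyme wells and a reference inhibitor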
# Conditions: Purified ALDH1A1, NADH fluorescence, propionaldehyde substrate; series mostly up to 75.3 µM; activity, negative = inhibition: at the top concentration
# Potency means the concentration at half of the fitted maximal effect; tags describe the fitted curve by direction and shape.
SMILES,Potency,"activity, negative = inhibition"
CC(CCn1cccn1)NC(=O)c1cc(COc2ccc(F)cc2F)on1 (stereo not drawn),"inconclusive [inhibitor, partial curve]",–
O=C(Cc1ccc([N+](=O)[O-])cc1)Nc1ccc2c(c1)C(=O)NC2=O,"inconclusive [inhibitor, single point]",–
Cc1ccc(C)c(N(CC(=O)Nc2ccc(-c3nc4ccc(C)cc4s3)cc2)S(C)(=O)=O)c1,"inconclusive [inhibitor, partial curve]",–
CO[C@@H]1COC(=O)CC=C[C@@H](C)[C@@H]2C=C[C@H](O)[C@@H](COC(=O)[C@H](C)NC(=O)CC=C[C@H]1C)O2,–,inactive: 0.823% [at 13.5 µM]
CCOC(=O)c1ccc(-c2ccc(C(=O)Nc3cccnc3)o2)cc1,active: 22.4 µM,–
COc1cccc(NC(=O)NC2CCCc3ccccc32)c1 (stereo not drawn),"inconclusive [inhibitor, partial curve]",–
COc1ccc(-c2cn3cccc(C)c3n2)cc1F,"inconclusive [inhibitor, single point]",–
Cn1c(=O)n(C)c2cc([N+](=O)[O-])c(N3CCN(C(=O)c4cccc(Cl)c4)CC3)cc21,"inconclusive [inhibitor, partial curve, poor fit]",–
Cc1cc2c(cc1C)NC(c1ccccn1)C1=C(CC(C)(C)CC1=O)N2 (stereo not drawn),active: 14.1 µM,–
O=C1c2ccccc2C(=O)N1CN(C(=O)COc1ccc(Cl)cc1Cl)c1cccc(F)c1,–,inactive: -0.293%
Cc1ccc(NC(=S)NCc2ccc3c(c2)OCO3)cc1C,"inconclusive [inhibitor, partial curve]",–
CCCn1nc(NC(=O)c2ccncc2)c2cc3ccccc3nc21,"inconclusive [inhibitor, single point]",–
N#Cc1c(/N=C/N2CCCC2)oc(-c2ccccc2)c1-c1ccccc1,active: 7.94 µM,–
O=C(NCN1CCN(c2ccccc2F)CC1)c1ccccc1,–,inactive: 4.65%
O=C(CSC1=NCCS1)c1ccc(Cl)cc1,"inconclusive [inhibitor, full curve]",–
Cc1nc(Oc2ccc(S(=O)(=O)N3CCOCC3)cc2Cl)c2c3c(sc2n1)CCCC3,"inconclusive [inhibitor, single point]",–
CC(C)OCCCNC(=O)c1ccc(C2SCC(=O)N2Cc2ccco2)cc1 (stereo not drawn),active: 10 µM,–
O=C(CSc1nc2ccccc2s1)NC1CCS(=O)(=O)C1 (stereo not drawn),"inconclusive [inhibitor, single point]",–
CCOC(=O)N1CCC(NC(=O)c2ccc3c(c2)sc2nc(-c4ccc(OC)cc4)cn23)CC1,"inconclusive [inhibitor, partial curve]",–
CCOc1ccccc1-n1c(SCC(=O)N(C(C)C)C(C)C)nnc1-c1cccnc1,"inconclusive [inhibitor, partial curve]",–
COc1ccc(S(=O)(=O)N2CCCCC2)cc1NS(=O)(=O)c1ccccc1F,"inconclusive [inhibitor, single point]",–
CCn1c2c(c3cc(Cl)ccc31)CCCC2=O,"inconclusive [inhibitor, single point]",–

SMILES,Potency,"activity, negative = inhibition"
O=C(CN1C(=O)c2cccc3cccc1c23)Nc1ccc(S(=O)(=O)Nc2nccs2)cc1,"inconclusive [inhibitor, partial curve]",–
CCOc1ccc(S(=O)(=O)N(C)c2ccc(OCC(=O)NCC3CCCO3)cc2)cc1 (stereo not drawn),–,inactive: -12%
Cc1ccc(NC(=O)C(=O)Nc2ccccn2)cc1,"inconclusive [inhibitor, single point]",–
Cc1cc(C)cc(NC(=S)N(CCN(C)C)Cc2cccs2)c1,–,inactive: -14.4%
Cc1noc(C)c1-c1nc(N2CCOCC2)c2ccccc2n1,"inconclusive [inhibitor, partial curve]",–
CCc1c(C)sc2nc3c(C(=O)N4CCOCC4)cc(C(=O)c4cc(F)ccc4O)cn3c(=O)c12,"inconclusive [inhibitor, single point]",–
O=C(O)c1cc([N+](=O)[O-])c(N2CCCC2)c([N+](=O)[O-])c1,–,inactive: -12.5%
O=C(CSc1nnc(-c2ccco2)n1CC1CCCO1)c1ccccc1 (stereo not drawn),active: 25.1 µM,–
Cc1cc(N2CCOCC2)n2cc(-c3ccc(F)cc3)nc2n1,"inconclusive [inhibitor, partial curve]",–
CCS(=O)(=O)CCSc1nc(C)cc(C)n1,–,inactive: 9.71%
COC(=O)[C@@]1(C)C[C@@H]1[C@@H](NC(=O)[C@@]1(C)C[C@@H]1[C@@H](NC(=O)[C@@]1(C)C[C@@H]1[C@@H](NC(=O)[C@@]1(C)C[C@@H]1[C@@H](NC(=O)OCc1ccccc1)c1ccccc1)c1ccccc1)c1ccccc1)c1ccccc1,–,inactive: 3.13%
Cc1cc(C)n2c3c(c(C#N)c2n1)CC(C)(C)OC3,"inconclusive [inhibitor, partial curve]",–
Cc1ccc(N2C(=O)C3C4CC(=O)C(c5ccccc54)C3C2=O)cc1C (stereo not drawn),"inconclusive [inhibitor, single point]",–
Cc1cc(C(=O)COC(=O)c2ccc([N+](=O)[O-])o2)c(C)n1CC1CCCO1 (stereo not drawn),active: 15.8 µM,–
CSCCC(C(=O)OCC(=O)c1ccc(C)c(C)c1)N1C(=O)c2cc(Cl)c(Cl)cc2C1=O (stereo not drawn),–,inactive: 4.74%
CCOc1ccc(/C=C(\C#N)C(=O)NCC2CCCO2)cc1OCC (stereo not drawn),active: 28.2 µM,–
Cc1ccnc(NC(=O)Nc2ccc3c(c2)OCO3)c1,–,inactive: -4.79%
O=c1c(-c2cccs2)nc2cnc(N3CCOCC3)nc2n1-c1ccccc1,"inconclusive [inhibitor, partial curve]",–
COc1ccc(-c2nc3c(c4c2C[C@H](c2ccccc2)OC4)CN(S(=O)(=O)c2ccc(C)cc2)CC3)c(C)c1,"inconclusive [inhibitor, single point]",–
COc1ccc(N(CC(=O)N2CCN(c3ccc(Cl)cc3)CC2)S(=O)(=O)c2c(C)n[nH]c2C)cc1,–,inactive: 2.79%
Brc1ccc(-c2cnnc(N3CCCC3)n2)cc1,"inconclusive [inhibitor, single point]",–
